{"source": "PubChem BioAssay AID1347073", "about": "(National Center for Advancing Translational Sciences (NCATS), 2019)", "note": "The whole screen tested about 45,000 compounds, of which about 200 (0.44%) were called active. Another 7% or so got no clear call; they are omitted. Calls come from the whole dose curve; as a rule, active = well fitted activation curve with a large enough effect; inconclusive = small, poorly fitted or top-dose-only effect; inactive = no such curve, though single readings can be large or run the other way. The list shows a part of the results."}
{"experiment": "qHTS of TDP-43 Inhibitors: NCGC Sytravon Library Screen; note: 0% is about no effect; nearly all actives have a fitted effect of over 55% in size", "conditions": "yeast TDP-43 toxicity rescue, BacTiter-Glo growth, 24 h; series mostly up to 46.1 µM; growth rescue (activation): at the top concentration", "outline": "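TDP-43-expressing yeast, pregrown in raffinose, seeded at OD600 0.02 in galactose medium with compound for 24 hr at 30 deg C. Growth read by BacTiter-Glo luminescence, so rescue of toxicity appears as activation.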"}
{"smiles": "O=C(Nc1nc(-c2ccc(S(=O)(=O)N3CCOCC3)cc2)cs1)c1ccccc1", "growth rescue (activation)": "inactive: -12.7%"}
{"smiles": "COc1ccc(CNc2nc(-c3ccccc3)nn2C(=O)c2ccc([N+](=O)[O-])cc2)cc1", "growth rescue (activation)": "inactive: 24.2%"}
{"smiles": "COc1ccc(Br)cc1CNC(=O)C(C)n1nc(C)n2c(cc3occc32)c1=O", "note": "(centres undefined)", "growth rescue (activation)": "inactive: 10.3%"}
{"smiles": "Cc1ccc(C)c(S(=O)(=O)N(C(=O)c2ccncc2)c2ccc(OC(=O)c3ccncc3)cc2)c1", "growth rescue (activation)": "inactive: 6.31%"}
{"smiles": "CN1CCCN=C1/C=C/c1cccs1", "growth rescue (activation)": "inactive: -34.1%"}
{"smiles": "CSCCC(NC(N)=O)C(=O)Nc1ccc(F)c(Cl)c1", "note": "(centres undefined)", "growth rescue (activation)": "inactive: 4.23%"}
{"smiles": "CCNC(=O)C(C)NC(=O)C1=NN(c2ccccc2)C(=O)CC1", "note": "(centres undefined)", "growth rescue (activation)": "inactive: -16.8%"}
{"smiles": "Nc1nc(-c2ccco2)nn1C(=O)c1ccc([N+](=O)[O-])cc1", "growth rescue (activation)": "inactive: -3.75%"}
{"smiles": "O=C1CCCN1CCCNc1nc(NCc2ccccc2)nc2ccsc12", "growth rescue (activation)": "inactive: 5.82%"}
{"smiles": "O=C(O)c1ccc(-n2cccn2)nc1", "growth rescue (activation)": "inactive: 8.08%"}
{"smiles": "Cc1cc(S(=O)(=O)N2CCN(CC(=O)N(C)Cc3ccccc3)CC2)ccc1Br", "growth rescue (activation)": "inactive: 7.6%"}
{"smiles": "Cc1cccc(CN2CCN(Cc3cccc(-n4cccn4)c3)CC2CCO)n1", "note": "(centres undefined)", "growth rescue (activation)": "inactive: -6.09%"}
{"smiles": "O=C(COC(=O)COc1cc(Cl)c(Cl)cc1Cl)NC1CC1", "growth rescue (activation)": "inactive: -11.1%"}
{"smiles": "Cc1cc2c(SCC(=O)Nc3cccc(O)c3)ncnc2s1", "growth rescue (activation)": "inactive: 2.85%"}
{"smiles": "CCCNC(=O)C1(C)CCCN(C(=O)c2cccc(OC(C)=O)c2C)C1", "note": "(centres undefined)", "growth rescue (activation)": "inactive: 14.5%"}
{"smiles": "Cc1ccc(S(=O)(=O)NCCCC(=O)O)cc1", "growth rescue (activation)": "inactive: 8.21%"}
{"smiles": "CC(C)CNC(=O)C(=O)NCc1ccccc1", "growth rescue (activation)": "inactive: -15.6%"}
{"smiles": "Cc1cccc(N2CCN(c3ccc(C(N)=O)cc3[N+](=O)[O-])CC2)c1C", "growth rescue (activation)": "inactive: 12.1%"}
{"smiles": "CC(C)CC(C(=O)Nc1ccccc1)N1C(=O)C2C3C=CC(C3)C2C1=O", "note": "(centres undefined)", "growth rescue (activation)": "inactive: -0.608%"}
{"smiles": "Cc1cccc(NC(=O)C2CCCN(S(=O)(=O)c3cccc4nonc34)C2)c1", "note": "(centres undefined)", "growth rescue (activation)": "inactive: 4.5%"}
{"smiles": "Cc1ccc(Nc2nnc(SC(C)C(=O)Nc3c(C)n(C)n(-c4ccccc4)c3=O)s2)cc1", "note": "(centres undefined)", "growth rescue (activation)": "inactive: 5.55%"}
{"smiles": "CN(c1ccc(OCC(=O)N2CCOCC2)cc1)S(=O)(=O)c1ccc(F)cc1", "growth rescue (activation)": "inactive: 10%"}
{"smiles": "CNc1cccc(-c2cccc(O)c2)n1", "growth rescue (activation)": "inactive: -11.8%"}
{"smiles": "O=C(NCc1ccc2c(c1)OCO2)c1nc(S(=O)(=O)Cc2ccccc2)ncc1Cl", "growth rescue (activation)": "inactive: 9.46%"}
{"smiles": "O=C(COC(=O)/C=C/c1cccc(C(F)(F)F)c1)Nc1cccc2ccccc12", "growth rescue (activation)": "inactive: 7.24%"}
{"smiles": "COc1ccc(-n2[nH]c(C)cc2=O)cc1", "growth rescue (activation)": "inactive: -0.234%"}
{"smiles": "COc1ccc(/C=C(\\C#N)C(=O)NCc2ccccc2)cc1", "growth rescue (activation)": "inactive: 19.9%"}
{"smiles": "COc1cc(C(=O)Nc2nnc(Cc3ccccc3)s2)cc(OC)c1OC", "growth rescue (activation)": "inactive: 6.42%"}
{"smiles": "Cc1cnc(C)c(N2CCN(Cc3nc(-c4cccc(F)c4F)oc3C)CC2)n1", "growth rescue (activation)": "inactive: -6.11%"}
{"smiles": "O=C(O)CCN1C(=O)c2ccc(NC(=O)CSc3ccccc3)cc2C1=O", "growth rescue (activation)": "inactive: 8.77%"}
{"smiles": "Cn1ccnc1SCC(=O)Nc1cc(S(=O)(=O)N2CCOCC2)ccc1Cl", "growth rescue (activation)": "inactive: 7.59%"}
{"smiles": "Cc1ccc(NC(=O)c2cccc(N3C(=O)CCC3=O)c2)nc1", "growth rescue (activation)": "inactive: 10.9%"}
{"smiles": "O=C(CSc1nnc(COc2ccccc2Cl)o1)NC(=O)NCc1ccco1", "growth rescue (activation)": "inactive: 24.8%"}
{"smiles": "CCOc1cc(/C=C/c2cc(C(=O)O)c3ccccc3n2)ccc1O", "growth rescue (activation)": "inactive: 6.93%"}
{"smiles": "CC(C)C(=O)Nc1ccc(NC(=O)c2cccc3c(Br)cccc23)cc1", "growth rescue (activation)": "inactive: -7.52%"}
{"smiles": "CCOC(=O)c1c(-c2ccc(-c3ccccc3)cc2)csc1NC(=O)c1cccc(N2C(=O)CCC2=O)c1", "growth rescue (activation)": "inactive: 4.72%"}
{"smiles": "CCN(CC)c1ccc(O)c(C=Nc2ccc(C)c(C)c2)c1", "growth rescue (activation)": "inactive: -4.56%"}
{"smiles": "COc1cc(S(=O)(=O)NC(Cc2c[nH]c3ccccc23)C(=O)O)ccc1NC(C)=O", "note": "(centres undefined)", "growth rescue (activation)": "inactive: 12.7%"}
{"smiles": "CCOc1ccccc1NC(=S)N1CCN(c2ccccc2F)CC1", "growth rescue (activation)": "inactive: 19.1%"}
{"smiles": "N#CC(C#N)=Cc1cc2ccccc2nc1N1CCOCC1", "growth rescue (activation)": "inactive: -0.186%"}
{"smiles": "Cc1noc(NS(=O)(=O)c2ccc(NS(=O)(=O)c3ccc(Cl)cc3)cc2)c1C", "growth rescue (activation)": "inactive: 7.05%"}
{"smiles": "CCNc1nc(Oc2ccc(=O)n(-c3ccccc3)n2)nc(N(C)C)n1", "growth rescue (activation)": "inactive: 3.45%"}
{"smiles": "O=C(Nc1ccc(S(=O)(=O)NCc2cccnc2)cc1)c1ccccc1Cl", "growth rescue (activation)": "inactive: 20.3%"}
{"smiles": "O=C(CN1CCOCC1)Nc1c2c(nc3ccccc13)N(Cc1ccccc1)CC2", "growth rescue (activation)": "inactive: -14.2%"}
{"smiles": "CCOC(=O)C1(C)CCN1C(=O)c1ccc(SC(F)(F)F)cc1", "note": "(centres undefined)", "growth rescue (activation)": "inactive: 24.1%"}
{"smiles": "Cn1c(CC(=O)Nc2ccccc2Cl)nnc1SCC(=O)NC1=NCCS1", "growth rescue (activation)": "inactive: 12.1%"}
{"smiles": "COc1ccc(NC(=S)Nc2ccc(OC)cc2OC)c(OC)c1", "growth rescue (activation)": "inactive: 2.79%"}
{"smiles": "CC(C)CCNC(=O)c1cc2c(=O)n3ccccc3nc2s1", "growth rescue (activation)": "inactive: 15.6%"}
{"smiles": "COc1ccc(C2C3=C(N=C4SCC(=O)N42)c2ccccc2CC3)cc1", "note": "(centres undefined)", "growth rescue (activation)": "inactive: 19.4%"}
{"smiles": "OC(COc1ccc(F)cc1)CN1CCN(CC(O)COc2ccc(F)cc2)CC1", "note": "(centres undefined)", "growth rescue (activation)": "inactive: 8.29%"}
{"smiles": "O=C(NC(c1ccc(Cl)cc1)c1ccsc1)C1CCN(Cc2cccc(Cl)c2)CC1", "note": "(centres undefined)", "growth rescue (activation)": "inactive: 9.35%"}
{"smiles": "COc1ccc(N2CCN(C(=O)C3(C)CC3(Cl)Cl)CC2)cc1", "note": "(centres undefined)", "growth rescue (activation)": "inactive: 23.5%"}
{"smiles": "O=c1oc2ccccc2c(N2CCCC2)c1[N+](=O)[O-]", "growth rescue (activation)": "inactive: -10.2%"}
{"smiles": "CC(C)(C)NC(=O)CN(C(=O)C(=O)Nc1ccc2c(c1)OCCO2)C1CC1", "growth rescue (activation)": "inactive: 5.77%"}
